In PMC10201506 (Signal Transduction and Targeted Therapy, 2023):

Tested on: HCoV-229E
Test: In vitro antiviral activity against HCoV-229E
Assay type: cell-based
Conditions: in words

O=C(c1cc(=O)[nH]c2ccccc12)N1CCN(c2ccc(Cl)c(Cl)c2)CC1CN1CCOCC1 (stereo not shown) [JZD-07, 4-(4-(3,4-Dichlorophenyl)-2-(morpholinomethyl)piperazine-1-carbonyl)quinolin-2(1H)-one]
antivirus activity against HCoV-229E: good antivirus activities
